Each structure is given as a SMILES string. Screen size: about 310,000 compounds; about 2,200 (0.71%) showed an effect of 50% or more. Effects have a minus sign here. The list shows a part of the results.

The target in this experiment is human ether-à-go-go-related gene (hERG) potassium channel (human, UniProt Q12809). Put plainly: primary screen, population patch clamp on CHO cells stably expressing hERG.
human ether-à-go-go-related gene (hERG) potassium channel, sequence (Q12809 whole entry, looked up): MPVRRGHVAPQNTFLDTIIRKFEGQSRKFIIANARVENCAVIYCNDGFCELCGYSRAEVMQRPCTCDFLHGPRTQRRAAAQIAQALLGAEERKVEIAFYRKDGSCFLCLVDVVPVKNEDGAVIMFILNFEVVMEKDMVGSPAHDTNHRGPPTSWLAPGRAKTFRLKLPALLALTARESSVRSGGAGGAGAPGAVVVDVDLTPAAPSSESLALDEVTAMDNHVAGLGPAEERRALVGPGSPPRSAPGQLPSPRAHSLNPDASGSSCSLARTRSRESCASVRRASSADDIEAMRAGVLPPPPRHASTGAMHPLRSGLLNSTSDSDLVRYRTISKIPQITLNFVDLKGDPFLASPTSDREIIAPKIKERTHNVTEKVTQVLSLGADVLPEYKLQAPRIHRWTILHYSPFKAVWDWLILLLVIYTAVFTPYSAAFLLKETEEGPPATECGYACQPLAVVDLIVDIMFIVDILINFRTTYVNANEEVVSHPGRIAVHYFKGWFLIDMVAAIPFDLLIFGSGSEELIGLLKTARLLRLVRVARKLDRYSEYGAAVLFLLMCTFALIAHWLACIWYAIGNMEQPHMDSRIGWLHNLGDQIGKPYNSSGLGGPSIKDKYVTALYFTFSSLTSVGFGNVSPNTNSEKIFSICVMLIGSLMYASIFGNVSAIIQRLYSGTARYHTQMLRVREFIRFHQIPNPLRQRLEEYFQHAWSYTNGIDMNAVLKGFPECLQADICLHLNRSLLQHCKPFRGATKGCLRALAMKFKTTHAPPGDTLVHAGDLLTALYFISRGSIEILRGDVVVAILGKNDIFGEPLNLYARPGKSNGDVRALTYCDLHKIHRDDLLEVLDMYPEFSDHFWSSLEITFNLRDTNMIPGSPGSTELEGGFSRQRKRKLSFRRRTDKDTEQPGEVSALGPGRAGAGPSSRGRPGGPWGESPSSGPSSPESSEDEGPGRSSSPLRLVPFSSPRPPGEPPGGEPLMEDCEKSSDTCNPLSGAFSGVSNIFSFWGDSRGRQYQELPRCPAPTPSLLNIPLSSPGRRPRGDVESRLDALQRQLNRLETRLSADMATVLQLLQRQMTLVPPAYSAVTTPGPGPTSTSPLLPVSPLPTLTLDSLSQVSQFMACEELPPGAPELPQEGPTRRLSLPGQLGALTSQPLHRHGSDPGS
Turning to `O=C(Cc1cccc2ccccc12)Nc1ccccc1Br`, the “hERG current change (%, negative = inhibition) at 1uM” value was 16.3%.
In the case of `O=C(COc1ccc(S(=O)(=O)N2CCOCC2)cc1Cl)NCc1ccccn1` it was 17.1%; in that of `C#CCOCCOCCOCCNc1nc(N2CCN(C(=O)CCCCCCCCCCNC(=O)[C@@H](CCC(=O)O)n3cc(CCCCCN)nn3)CC2)nc(N2CCN(C(=O)CCCCCCCCCCNC(=O)[C@@H](CCC(=O)O)n3cc(CCCCCN)nn3)CC2)n1`, -7.24%.
Consider `COc1ccc2ccccc2c1CN1CCN(C)CC1`, for which the “hERG current change (%, negative = inhibition) at 1uM” value was determined as 3.67%.
Regarding `CN(C)c1ccc(NC(=O)CN2C(=O)CC(c3ccccc3)=Nc3ccccc32)cc1`, the “hERG current change (%, negative = inhibition) at 1uM” value is given as 7.35%.
As for `Cc1ccc(S(=O)(=O)Nc2ccc(Br)cc2/C=N/n2cnnc2)cc1`, the “hERG current change (%, negative = inhibition) at 1uM” value was determined as 11.1%.
Under `Cc1cc(NS(=O)(=O)c2ccc(NC(=O)Nc3cccc(C(F)(F)F)c3)cc2)no1` stands 12.6%; under `O=C(Cc1cc(C(=O)O)c2ccccc2n1)Nc1ccccc1`, 17.5%; under `Cc1ccc(CCCNC(=O)C2CCC(=O)N(Cc3cccc(F)c3)C2)cc1` (stereo not shown), -22%.
In the case of `COc1ccc([C@H]2CC(=O)C=C(c3ccc(C)cc3)C2)cc1`, the “hERG current change (%, negative = inhibition) at 1uM” value is 7.36%.
Take `O=C1CCCC2C3CCCN4CCCC(CN12)C34` (stereo not shown): the “hERG current change (%, negative = inhibition) at 1uM” value is reported as 14.6%.
In the case of `O=C(CC1C(=O)NCCN1Cc1cccc(Oc2ccccc2)c1)NCCc1ccncc1` (stereo not shown) it was -2.6%; in that of `Cc1ccc(N/C=C2\C(=O)N(c3ccc(F)cc3F)C(c3cccnc3)S2(=O)=O)cc1` (stereo not shown), 6.43%.
Under `CCOc1ccc(CCNC(=O)C2CCN(c3nn4c(=O)cc(C)nc4s3)CC2)cc1OCC` stands 7.91%.
Under `Cc1ccc(-n2nc3c(c2NC(=O)c2cccs2)CS(=O)(=O)C3)cc1C` stands -10.3%; under `CN(Cc1cn(C)nc1-c1ccc(Oc2ccccc2)cc1)Cc1cnc2ccccn12`, 1.55%.
Take `CCOc1ccc(NC(=O)N[C@@H](Cc2ccccc2)C(=O)O)cc1`: the “hERG current change (%, negative = inhibition) at 1uM” value came to 10.9%.
In the case of `O=C(O)C(=O)O.OC(CNCCc1ccc(C(F)(F)F)cc1)COC(c1ccccc1)c1ccccc1` (stereo not shown) it was 6.38%; in that of `Cc1ccc2[nH]c(CSc3ccccc3)cc(=O)c2c1`, 12.4%; in that of `O=c1c2ccccc2n2c(-c3ccc(F)cc3)nnc2n1Cc1ccccc1`, 6.71%.
Under `CCOc1ccc(CCNC(=O)COC(=O)C2=NNC(=O)CC2)cc1OCC` stands 9.57%.
Under `Cn1cccc1C(=S)N=P(C1CCCCC1)(N1CCOCC1)N1CCOCC1` stands 6.29%; under `O=C(/C=C/c1ccc(S(=O)(=O)NCc2ccco2)cc1)N1CCN(c2ccccc2)CC1`, 5.15%; under `CC(=O)Nc1ccc(NC(=O)C(C)OC(=O)CNC(=O)c2cccs2)cc1` (stereo not shown), 12.5%.
Turning to `O=C(c1ccco1)N1CCN(Cc2cccc(C(F)(F)F)c2)CC1`, the “hERG current change (%, negative = inhibition) at 1uM” value was 10.8%.
For `COc1ccccc1-c1ccc(SCC(=O)Nc2cc(C)on2)nn1`, the “hERG current change (%, negative = inhibition) at 1uM” value is 5.82%.
Take `Cc1nnc(SCC(=O)NCc2ccco2)n1Cc1ccccc1`: the “hERG current change (%, negative = inhibition) at 1uM” value was determined as 15.9%.
In the case of `COc1ccccc1Oc1ccc(N/C=C/C(=O)C(C)(C)C)cc1` it was 8.32%; in that of `COc1ccccc1NC(=O)c1ccc(NC(=O)CN2CCN(C(=O)c3ccco3)CC2)cc1`, -6.88%; in that of `Cc1cc(=O)[nH]c(CN2CCC(c3ccccc3)CC2)n1`, 12.9%.
For `CC(=O)Nc1ccc(S(=O)(=O)NC(CC(=O)N(C)Cc2ccccc2)C(C)C)cc1` (stereo not shown), the “hERG current change (%, negative = inhibition) at 1uM” value stood at 11.5%.
In the case of `O=C(NC1CCCCC1)C(c1ccc(O)cc1)N(C(=O)c1cnccn1)c1cccc(F)c1` (stereo not shown) it was 5.26%.
In the case of `COc1ccccc1NC(=O)c1ccc(-n2cccn2)nc1` it was 6.59%.
With `CC(=O)Nc1ccc(NC(=O)c2ccc(NS(=O)(=O)c3cc(C(C)(C)C)ccc3C)cc2)cc1`, the “hERG current change (%, negative = inhibition) at 1uM” value is listed as 9.04%.
Under `CCC(C)(C(=O)NC1CCCC1)N(C)C(=O)c1ccccn1` (stereo not shown) stands 6.56%.
Under `CC(NC(N)=O)C(=O)OCC(=O)c1ccc(-c2ccccc2)cc1` (stereo not shown) stands 7.97%.
Under `CCc1cc(=O)oc2cc3occ(-c4ccc(OC)c(F)c4)c3cc12` stands 8.21%; under `C=CCNC(=S)N1CCN(CCN=CC2=C(O)CC(c3cccs3)CC2=O)CC1` (stereo not shown), -10.1%.
For the compound `CCOC(=O)c1ccc(-n2c(=O)[nH]c3ccccc3c2=O)cc1`, the “hERG current change (%, negative = inhibition) at 1uM” value worked out at 7.25%.
As to `COc1ccc(-c2ccc(NS(=O)(=O)c3ccc([N+](=O)[O-])cc3)cc2)nn1`, the “hERG current change (%, negative = inhibition) at 1uM” value is recorded as 12.4%.
`Cc1occc1C(=O)O/N=C(\N)c1ccccc1`: the “hERG current change (%, negative = inhibition) at 1uM” value is on record as 2.67%.
Under `CC(=O)c1ccc(OCc2cc(C(=O)NC(C)c3cnn(C)c3)no2)cc1` (stereo not shown) stands 9.57%; under `COc1ccccc1N1C(=O)NC(=O)/C(=C/c2ccc([N+](=O)[O-])s2)C1=O`, 6.48%.

The record behind these values is PMC4336329 (PLoS ONE, 2015).
